Reference: the supplement of paper PMC8728848
This is one part of the list.

Legend:
Experiment in all cases: glycan array binding signal (z-score within array); higher = stronger binding
Details in all cases: glycan notation: IUPAC condensed, linker removed; mutation: D325N
[1] = target: Neu5Ac(a2-3)Gal(b1-4)[Fuc(a1-3)]GlcNAc
Procedure, shortened: (§1)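 Glycan array data were curated from 3228 arrays in the Consortium for Functional Glycomics database and kept only where the protein sequence was available. Glycan names were converted to IUPAC-condensed notation, and columns mapping to the same glycan were averaged. The binding signal is a within-array Z-score, averaged across arrays of the same protein sequence at different concentrations or buffers and across linkers. Negative Z-scores can be read as non-binding.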

[2] = target: Neu5Ac(a2-3)Gal(b1-4)[Fuc(a1-3)]GlcNAc(b1-3)Gal
Procedure, shortened: as §1

[3] = target: Neu5Ac(a2-3)Gal(b1-4)[Fuc(a1-3)]GlcNAc(b1-3)Gal(b1-4)GlcNAc
Procedure, shortened: as §1

[4] = target: Neu5Ac(a2-3)Gal(b1-4)[Fuc(a1-3)]GlcNAc(b1-3)Gal(b1-4)[Fuc(a1-3)]GlcNAc(b1-3)Gal(b1-4)[Fuc(a1-3)]GlcNAc
Procedure, shortened: as §1

[5] = target: Neu5Ac(a2-3)Gal(b1-4)[Fuc(a1-3)]GlcNAc(b1-6)[Gal(b1-3)]GalNAc
Procedure, shortened: as §1

[6] = target: Neu5Ac(a2-3)Gal(b1-4)[Fuc(a1-3)]GlcNAc6S
Procedure, shortened: as §1

[7] = target: Neu5Ac(a2-3)Gal6S(b1-4)GlcNAc
Procedure, shortened: as §1

[8] = target: Neu5Ac(a2-3)Gal6S(b1-4)[Fuc(a1-3)]GlcNAc
Procedure, shortened: as §1

Neu5Ac(a2-3)GalNAc = target: Neu5Ac(a2-3)GalNAc
Procedure, shortened: as §1

[9] = target: Neu5Ac(a2-3)GalNAc(b1-4)GlcNAc
Procedure, shortened: as §1

[10] = target: Neu5Ac(a2-3)[GalNAc(b1-4)]Gal(b1-4)Glc
Procedure, shortened: as §1

[11] = target: Neu5Ac(a2-3)[GalNAc(b1-4)]Gal(b1-4)GlcNAc
Procedure, shortened: as §1

[12] = target: Neu5Ac(a2-3)[Neu5Ac(a2-6)]GalNAc
Procedure, shortened: as §1

Neu5Ac(a2-6)Gal = target: Neu5Ac(a2-6)Gal
Procedure, shortened: as §1

Neu5Ac(a2-6)Gal(b1-4)Glc = target: Neu5Ac(a2-6)Gal(b1-4)Glc
Procedure, shortened: as §1

[13] = target: Neu5Ac(a2-6)Gal(b1-4)GlcNAc
Procedure, shortened: as §1

[14] = target: Neu5Ac(a2-6)Gal(b1-4)GlcNAc(b1-2)Man(a1-3)[Gal(b1-4)GlcNAc(b1-2)Man(a1-6)]Man(b1-4)GlcNAc(b1-4)GlcNAc
Procedure, shortened: as §1

[15] = target: Neu5Ac(a2-6)Gal(b1-4)GlcNAc(b1-2)Man(a1-3)[GlcNAc(b1-2)Man(a1-6)]Man(b1-4)GlcNAc(b1-4)GlcNAc
Procedure, shortened: as §1

[16] = target: Neu5Ac(a2-6)Gal(b1-4)GlcNAc(b1-2)Man(a1-3)[GlcNAc(b1-2)Man(b1-4)GlcNAc(b1-2)Man(a1-6)]Man(b1-4)GlcNAc(b1-4)GlcNAc
Procedure, shortened: as §1

[17] = target: Neu5Ac(a2-6)Gal(b1-4)GlcNAc(b1-2)Man(a1-3)[Neu5Ac(a2-6)Gal(b1-4)GlcNAc(b1-2)Man(a1-6)]Man(b1-4)GlcNAc(b1-4)GlcNAc
Procedure, shortened: as §1

[18] = target: Neu5Ac(a2-6)Gal(b1-4)GlcNAc(b1-2)Man(a1-6)[Gal(b1-4)GlcNAc(b1-2)Man(a1-3)]Man(b1-4)GlcNAc(b1-4)GlcNAc
Procedure, shortened: as §1

[19] = target: Neu5Ac(a2-6)Gal(b1-4)GlcNAc(b1-2)Man(a1-6)[GlcNAc(b1-2)Man(a1-3)]Man(b1-4)GlcNAc(b1-4)GlcNAc
Procedure, shortened: as §1

[20] = target: Neu5Ac(a2-6)Gal(b1-4)GlcNAc(b1-3)Gal(b1-4)GlcNAc
Procedure, shortened: as §1

[21] = target: Neu5Ac(a2-6)Gal(b1-4)GlcNAc(b1-3)Gal(b1-4)[Fuc(a1-3)]GlcNAc(b1-3)Gal(b1-4)[Fuc(a1-3)]GlcNAc
Procedure, shortened: as §1

[22] = target: Neu5Ac(a2-6)Gal(b1-4)GlcNAc6S
Procedure, shortened: as §1

Neu5Ac(a2-6)GalNAc = target: Neu5Ac(a2-6)GalNAc
Procedure, shortened: as §1

[23] = target: Neu5Ac(a2-6)GalNAc(b1-4)GlcNAc
Procedure, shortened: as §1

Neu5Ac(a2-8)Neu5Ac = target: Neu5Ac(a2-8)Neu5Ac
Procedure, shortened: as §1

[24] = target: Neu5Ac(a2-8)Neu5Ac(a2-3)Gal(b1-4)Glc
Procedure, shortened: as §1

[25] = target: Neu5Ac(a2-8)Neu5Ac(a2-3)[GalNAc(b1-4)]Gal(b1-4)Glc
Procedure, shortened: as §1

[26] = target: Neu5Ac(a2-8)Neu5Ac(a2-8)Neu5Ac
Procedure, shortened: as §1

[27] = target: Neu5Ac(a2-8)Neu5Ac(a2-8)Neu5Ac(a2-3)Gal(b1-4)Glc
Procedure, shortened: as §1

[28] = target: Neu5Ac(a2-8)Neu5Ac(a2-8)Neu5Ac(a2-3)[GalNAc(b1-4)]Gal(b1-4)Glc
Procedure, shortened: as §1

[29] = target: Neu5Ac(a2-8)Neu5Ac(a2-8)Neu5Ac(a2-8)Neu5Ac(a2-3)[GalNAc(b1-4)]Gal(b1-4)Glc
Procedure, shortened: as §1

[30] = target: Neu5Ac(b2-6)Gal(b1-4)GlcNAc
Procedure, shortened: as §1

Neu5Ac(b2-6)GalNAc = target: Neu5Ac(b2-6)GalNAc
Procedure, shortened: as §1

[31] = target: Neu5Ac9Ac(a2-6)Gal(b1-4)GlcNAc
Procedure, shortened: as §1

[32] = target: Neu5Gc(a2-3)Gal(b1-3)GlcNAc
Procedure, shortened: as §1

[33] = target: Neu5Gc(a2-3)Gal(b1-3)[Fuc(a1-4)]GlcNAc
Procedure, shortened: as §1

Neu5Gc(a2-3)Gal(b1-4)Glc = target: Neu5Gc(a2-3)Gal(b1-4)Glc
Procedure, shortened: as §1

[34] = target: Neu5Gc(a2-3)Gal(b1-4)GlcNAc
Procedure, shortened: as §1

[35] = target: Neu5Gc(a2-3)Gal(b1-4)[Fuc(a1-3)]GlcNAc
Procedure, shortened: as §1

[36] = target: Neu5Gc(a2-6)Gal(b1-4)GlcNAc
Procedure, shortened: as §1

Neu5Gc(a2-6)GalNAc = target: Neu5Gc(a2-6)GalNAc
Procedure, shortened: as §1

[37] = target: Neu5Gc(b2-6)Gal(b1-4)GlcNAc
Procedure, shortened: as §1

B1: Surfactant Protein D (Human); Neck + Carbohydrate Recognition Domain (NCRD) (Homo sapiens) (protein)
chain: MLLFLLSALVLLTQPLGYLEAEMKTYSHRTMPSACTLVMCSSVESGLPGRDRDGREGPRGEKGDPGLPGAAGQAGMPGQAGPVGPKGDNGSVGEPGPKGDTGPSGPPGPPGVPGPAGREGALGKQGNIGPQGKPGPKGEAGPKGEVGAPGMQGSAGARGLAGPKGERGVPGERGVPGNTGAAGSAGAMGPQGSPGARGPPGLKGDKGIPGDKGAKGESGLPDVASLRQQVEALQGQVQHLQAAFSQYKKVELFPNGQSVGEKIFKTAQFVKPFTEAQLLCTQAGGQLASPRSAAENAALQQLVVAKNEAAFLSMTDSKTEGKFTYPTGESLVYSNWAPGEPNDNGGSEDCVEIFTNGKWNDRACGEKRLVVCEF
[1]
  glycan array binding signal (z-score): -0.125
[2]
  glycan array binding signal (z-score): -0.132
[3]
  glycan array binding signal (z-score): -0.114
[4]
  glycan array binding signal (z-score): -0.125
[5]
  glycan array binding signal (z-score): -0.073
[6]
  glycan array binding signal (z-score): -0.141
[7]
  glycan array binding signal (z-score): -0.153
[8]
  glycan array binding signal (z-score): -0.136
Neu5Ac(a2-3)GalNAc
  glycan array binding signal (z-score): -0.146
[9]
  glycan array binding signal (z-score): -0.148
[10]
  glycan array binding signal (z-score): -0.132
[11]
  glycan array binding signal (z-score): -0.12
[12]
  glycan array binding signal (z-score): -0.158
Neu5Ac(a2-6)Gal
  glycan array binding signal (z-score): -0.148
Neu5Ac(a2-6)Gal(b1-4)Glc
  glycan array binding signal (z-score): -0.153
[13]
  glycan array binding signal (z-score): -0.153
[14]
  glycan array binding signal (z-score): -0.117
[15]
  glycan array binding signal (z-score): -0.153
[16]
  glycan array binding signal (z-score): -0.137
[17]
  glycan array binding signal (z-score): -0.118
[18]
  glycan array binding signal (z-score): -0.128
[19]
  glycan array binding signal (z-score): -0.134
[20]
  glycan array binding signal (z-score): -0.14
[21]
  glycan array binding signal (z-score): -0.14
[22]
  glycan array binding signal (z-score): -0.137
Neu5Ac(a2-6)GalNAc
  glycan array binding signal (z-score): -0.129
[23]
  glycan array binding signal (z-score): -0.145
Neu5Ac(a2-8)Neu5Ac
  glycan array binding signal (z-score): -0.128
[24]
  glycan array binding signal (z-score): -0.108
[25]
  glycan array binding signal (z-score): -0.129
[26]
  glycan array binding signal (z-score): -0.163
[27]
  glycan array binding signal (z-score): -0.148
[28]
  glycan array binding signal (z-score): -0.138
[29]
  glycan array binding signal (z-score): -0.13
[30]
  glycan array binding signal (z-score): -0.14
Neu5Ac(b2-6)GalNAc
  glycan array binding signal (z-score): -0.126
[31]
  glycan array binding signal (z-score): -0.14
[32]
  glycan array binding signal (z-score): -0.138
[33]
  glycan array binding signal (z-score): -0.144
Neu5Gc(a2-3)Gal(b1-4)Glc
  glycan array binding signal (z-score): -0.138
[34]
  glycan array binding signal (z-score): -0.134
[35]
  glycan array binding signal (z-score): -0.124
[36]
  glycan array binding signal (z-score): -0.125
Neu5Gc(a2-6)GalNAc
  glycan array binding signal (z-score): -0.153
[37]
  glycan array binding signal (z-score): -0.017
